Test results published in the supplement of paper PMC3334620.
Whole data set: some 33,000 sequences, median “E-score (-0.5 to 0.5)” near -0.054, cut for the highest 2% near 0.39. The list shows a part of the results.

Molecular target: Ylr278c (UniProt Q05854)
Experiment: PBM E-score (8-mer binding enrichment) (E-score (-0.5 to 0.5)); higher = stronger / more preferred TF binding; most listed sequences are background and not binding sites
Conditions: protein concentration: 200 nM; construct: GST-DNA-binding domain
In short: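 Yeast transcription factors carrying a GST tag, as full-length proteins or DNA-binding domains, were produced by PURExpress in vitro transcription/translation. About 100-200 nM protein was applied to universal all-10-mer Agilent arrays, double-stranded by primer extension on fresh or once-stripped slides. Bound protein was detected with fluorescent anti-GST, and scans were normalised with masliner. The Universal PBM Analysis Suite gave each ungapped eight-base word, pooled with its reverse complement, an E-score, a modified Wilcoxon-Mann-Whitney statistic.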

Compared with CCGGGGAG, GTGACTCA is lower in “PBM E-score” value: 0.346 for the first, -0.241 for the second.

Compared with ACCACCTG, GCAGTCAC is lower in “PBM E-score” value: 0.037 for the first, -0.224 for the second.

Compared with CAAACCGC, ACGCGCAA is higher in “PBM E-score” value: 0.138 for the first, 0.163 for the second.

First: CACTCATA
Second: CGATGCCA
The “PBM E-score” value of the first is lower: -0.157 for the first, -0.096 for the second.

Compared with AATTGTTG, GATAAAGA is higher in “PBM E-score” value: -0.227 for the first, -0.0748 for the second.

Going from ACAGATTG to AAGGGCTC, the “PBM E-score” value falls from -0.0774 to -0.299.

First: AATTTGGA
Second: CAAAGTAA
The “PBM E-score” value of the first is lower: -0.204 for the first, 0.0244 for the second.

Compared with ACTTCAAA, ACCCTTCG is higher in “PBM E-score” value: -0.0999 for the first, 0.0769 for the second.

Compared with ACCAATGC, CCATCCGG is higher in “PBM E-score” value: 0.117 for the first, 0.229 for the second.

Going from CGATATAA to CCGGAAAA, the “PBM E-score” value rises from -0.0278 to 0.453.

First: AGAATTGG
Second: GTAGGCAC
The “PBM E-score” value of the first is higher: -0.122 for the first, -0.15 for the second.

Compared with CTACACAG, AACGATTC is higher in “PBM E-score” value: -0.232 for the first, 0.0311 for the second.

Going from ACTTTCGG to CAAGTCGG, the “PBM E-score” value falls from 0.217 to 0.16.

Compared with ACGAACTA, CTCTTCAA is higher in “PBM E-score” value: -0.172 for the first, -0.116 for the second.

First: GATTTTCC
Second: AAACTGAC
The “PBM E-score” value of the first is higher: 0.263 for the first, -0.00553 for the second.

Compared with TCGGTCCA, GTACTGTA is lower in “PBM E-score” value: -0.0418 for the first, -0.103 for the second.

Going from ATGGCGAC to ACTAATAG, the “PBM E-score” value rises from -0.0804 to -0.0539.

First: AAGCTCCG
Second: AGCGAAGA
The “PBM E-score” value of the first is higher: 0.477 for the first, -0.0955 for the second.

First: AAACACAG
Second: TCGTCAAA
The “PBM E-score” value of the first is higher: 0.015 for the first, -0.0475 for the second.

First: CCCGTTAC
Second: CTACGGTA
The “PBM E-score” value of the first is higher: 0.0521 for the first, -0.0408 for the second.

Compared with CGGGGTGC, CCTGCTTA is lower in “PBM E-score” value: 0.287 for the first, -0.129 for the second.

First: CTGCTGTA
Second: GAGATGTA
The “PBM E-score” value of the first is lower: -0.0872 for the first, 0.0851 for the second.

First: GAAGAAGA
Second: AAACTGCT
The “PBM E-score” value of the first is higher: -0.0787 for the first, -0.22 for the second.

Going from ATCCCCTC to CGTACGAA, the “PBM E-score” value rises from -0.202 to -0.0657.

Compared with CTTGTTAA, AACTGCCT is lower in “PBM E-score” value: 0.114 for the first, -0.115 for the second.

Compared with AAACTGTC, ACTAGTCA is lower in “PBM E-score” value: -0.277 for the first, -0.309 for the second.

Going from CTCGCATA to AAGGGTTG, the “PBM E-score” value falls from -0.219 to -0.257.

Compared with AAATATCA, CCCGATAC is higher in “PBM E-score” value: -0.185 for the first, 0.204 for the second.

Going from GTGCCAAA to AAGTTACC, the “PBM E-score” value rises from -0.127 to 0.047.

Compared with CTACGAAC, CCGGCCCA is higher in “PBM E-score” value: -0.151 for the first, 0.284 for the second.

Compared with ATACAGAT, TCTGAACA is lower in “PBM E-score” value: -0.122 for the first, -0.203 for the second.

Going from ATGGTCTA to CCAATAGG, the “PBM E-score” value rises from -0.294 to -0.0412.

First: CTATTAGA
Second: GAAACGTC
The “PBM E-score” value of the first is lower: -0.156 for the first, -0.0375 for the second.

Going from AGAGTGAT to CTTTAACA, the “PBM E-score” value rises from -0.174 to -0.0348.

Going from GTTAATTA to ATGTTCTC, the “PBM E-score” value falls from 0.0295 to -0.111.

First: CTACTTTC
Second: AGCCGGGA
The “PBM E-score” value of the first is lower: -0.0554 for the first, 0.272 for the second.

First: ATGTCAGC
Second: ACGGTTCT
The “PBM E-score” value of the first is higher: -0.19 for the first, -0.239 for the second.

First: CGCGGCGA
Second: AACGGACG
The “PBM E-score” value of the first is higher: 0.324 for the first, 0.235 for the second.

Compared with CCGCATTA, ATACCCTC is lower in “PBM E-score” value: 0.329 for the first, 0.0353 for the second.

Going from ATCGAGTA to AGTTATGA, the “PBM E-score” value rises from -0.157 to -0.0588.

Compared with CTTTGTGC, TCCACTCA is lower in “PBM E-score” value: -0.122 for the first, -0.14 for the second.

Going from GTGTGCGA to CGGTCGAC, the “PBM E-score” value rises from -0.0797 to 0.268.

Going from GTTGAGGA to AAAATAAA, the “PBM E-score” value rises from -0.116 to 0.0366.

Going from ATTCAAAA to TGATGCCA, the “PBM E-score” value falls from -0.0484 to -0.207.

First: CGGTTGTA
Second: CGGCGAAC
The “PBM E-score” value of the first is lower: -0.0449 for the first, 0.377 for the second.

First: TGAACTCA
Second: GCCCTGAA
The “PBM E-score” value of the first is lower: -0.232 for the first, -0.0286 for the second.

Compared with AATCGCTA, CCTAAAGC is lower in “PBM E-score” value: -0.143 for the first, -0.195 for the second.

Compared with ACCCAACG, ATCCATAC is lower in “PBM E-score” value: -0.0574 for the first, -0.145 for the second.

Compared with GGGAGTAC, GGGTAGAA is lower in “PBM E-score” value: 0.0396 for the first, -0.0907 for the second.

First: ATGAAATA
Second: CTTCAACC
The “PBM E-score” value of the first is higher: 0.0645 for the first, -0.0749 for the second.

Compared with GCAGGCCC, ATATGGAC is lower in “PBM E-score” value: -0.145 for the first, -0.165 for the second.

Going from CCCATTCC to AAACTCCC, the “PBM E-score” value rises from -0.043 to 0.322.

Compared with AAGATTAG, GATGTCCC is higher in “PBM E-score” value: 0.00781 for the first, 0.245 for the second.

Going from ATTTTCGA to GCCTTAGC, the “PBM E-score” value rises from -0.0717 to -0.017.

Going from GTGGTCTA to AACTAGAA, the “PBM E-score” value falls from -0.117 to -0.124.
